Laboratory results reported in paper PMC4336329 (PLoS ONE, 2015).
The whole screen tested about 310,000 compounds, of which about 14,000 (4.5%) showed an effect of 50% or more. The effect is printed as a negative number. This is one part of the list.

target: human ether-à-go-go-related gene (hERG) potassium channel (human, UniProt Q12809); assay: primary screen, population patch clamp on CHO cells stably expressing hERG
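Further: peak tail current of the secondary pulse compared with the same well before compound.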

human ether-à-go-go-related gene (hERG) potassium channel, sequence (Q12809 whole entry, looked up): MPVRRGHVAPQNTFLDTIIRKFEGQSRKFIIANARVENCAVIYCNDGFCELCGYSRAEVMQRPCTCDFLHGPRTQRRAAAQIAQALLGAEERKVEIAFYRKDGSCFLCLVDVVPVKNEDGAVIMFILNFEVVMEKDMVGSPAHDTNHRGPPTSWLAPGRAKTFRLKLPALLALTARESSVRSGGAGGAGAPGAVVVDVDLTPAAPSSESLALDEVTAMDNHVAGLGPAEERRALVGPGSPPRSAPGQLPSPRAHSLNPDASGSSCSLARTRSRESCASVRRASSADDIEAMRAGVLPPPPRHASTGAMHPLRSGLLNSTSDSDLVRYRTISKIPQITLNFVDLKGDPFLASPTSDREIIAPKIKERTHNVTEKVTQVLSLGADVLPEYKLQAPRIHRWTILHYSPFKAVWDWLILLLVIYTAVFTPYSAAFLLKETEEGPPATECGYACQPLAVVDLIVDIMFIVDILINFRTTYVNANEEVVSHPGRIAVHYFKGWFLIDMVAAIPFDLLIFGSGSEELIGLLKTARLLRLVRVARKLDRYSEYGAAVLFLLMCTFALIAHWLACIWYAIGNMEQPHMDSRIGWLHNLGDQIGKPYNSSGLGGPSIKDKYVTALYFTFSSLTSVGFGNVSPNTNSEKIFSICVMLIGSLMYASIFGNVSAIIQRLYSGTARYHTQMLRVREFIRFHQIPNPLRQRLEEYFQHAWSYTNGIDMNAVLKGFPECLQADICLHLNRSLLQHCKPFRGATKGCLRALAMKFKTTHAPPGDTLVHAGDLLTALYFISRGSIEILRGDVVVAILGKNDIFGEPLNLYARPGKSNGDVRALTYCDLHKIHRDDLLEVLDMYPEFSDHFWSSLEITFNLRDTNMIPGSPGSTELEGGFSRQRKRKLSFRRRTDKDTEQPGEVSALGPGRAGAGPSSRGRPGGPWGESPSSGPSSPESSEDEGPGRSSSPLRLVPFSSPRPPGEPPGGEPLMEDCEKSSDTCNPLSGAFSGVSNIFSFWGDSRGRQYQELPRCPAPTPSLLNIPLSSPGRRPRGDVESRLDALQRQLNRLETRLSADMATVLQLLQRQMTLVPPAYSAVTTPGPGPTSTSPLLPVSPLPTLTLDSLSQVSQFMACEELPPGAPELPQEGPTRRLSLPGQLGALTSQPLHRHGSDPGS

| SMILES | hERG current change (%, negative = inhibition) at 10uM [%] |
| --- | --- |
| CSc1ccccc1C(=O)N(C)C(c1ccccc1)c1ccccc1 | 1.53 |
| CCOC(=O)Cc1csc(NS(C)(=O)=O)n1 | 15.5 |
| CCc1cc(-c2[nH]ncc2-c2ccc(OC)cc2)c(O)cc1O | 10.8 |
| O=C(N/N=C/c1ccc(OCC(=O)N2CCCC2)cc1)C(=O)NC1CC1 | 19.2 |
| CN(C(=O)Cn1cnc2sccc2c1=O)C1CCCCC1 | 1.38 |
| CN(C=O)CP(=O)(O)CN(C)C=O | -0.845 |
| Cc1cccc(C)c1NC(=O)NC1(C(=O)N2CCOCC2)CCCCC1 | 12.9 |
| COc1ccccc1-n1c(CNc2ccc(F)cc2)nnc1SCC(=O)Nc1cc(C)on1 | -1.35 |
| Cc1cccc(NC(=S)NNC(=O)Cc2ccccc2)c1 | 12.5 |
| O=S(=O)(Nc1cccc2ccccc12)c1ccccc1 | -5.57 |
| CCCCN1C(=O)C2NN=C(C(=O)OC)C2C1=O (centres unmarked) | -4.12 |
| COc1ccc(NC(=O)Nc2ccc(OCC(=O)N3CCOCC3)cc2)cc1OC | -2.3 |
| CCCn1nnc(NC(=O)c2ccc(-c3cc(Cl)ccc3Cl)o2)n1 | 6.96 |
| Cn1c2c(c(=O)n(C)c1=O)C1c3cc(Cl)ccc3OCC1CO2 (centres unmarked) | -18.7 |
| Cc1ccc(S(=O)(=O)N2CCC(Oc3cccc(C(F)(F)F)c3)CC2)cc1 | 10.5 |
| Cc1cc(Cl)ccc1OCC(=O)O | -0.423 |
| Cc1ccc(N(C(=O)c2csnn2)C(C(=O)NC2CCCC2)c2ccccn2)c(C)c1 (centres unmarked) | 14.9 |
| Cl.NC(N)=N/N=C/c1ccc(Br)cc1 | -17.4 |
| CCn1cc(CN2CCN(Cc3ccccc3)C(CCO)C2)c2ccccc21 (centres unmarked) | -32 |
| COc1ccc(C)cc1NC(=O)c1ccccc1NS(=O)(=O)c1ccc(Cl)s1 | 23.8 |
| CCC(=O)N1CCN(CCN=CC2=C(O)CC(c3ccc(OC)cc3)CC2=O)CC1 (centres unmarked) | 5.11 |
| CCOC(=O)c1c(-c2cccs2)csc1NC(=O)CN1CCOCC1 | -12.6 |

| SMILES | hERG current change (%, negative = inhibition) at 10uM [%] |
| --- | --- |
| COc1cc(/C=C(\NC(C)=O)C(=O)Nc2ccccc2C)ccc1OC(C)=O | 4.81 |
| Cc1ccc(N2C(=O)CC(Cn3nc(C)cc3C)C2=O)cc1 (centres unmarked) | 5.87 |
| CCC(C)(C)NC(=O)c1cc(OC)c(OC)cc1[N+](=O)[O-] | 26.8 |
| COC(=O)c1c(NC(=O)COC(=O)CCS(=O)(=O)c2ccc(C)cc2)sc(C)c1C | 8.18 |
| COc1cccc(NC(=O)N2CCC(n3nnc4ccccc43)CC2)c1 | -18.8 |
| Cc1nn(CC(C)C)c2sc(C(=O)NC3CC(C)(C)NC(C)(C)C3)cc12 | 17.8 |
| Cl.O=C(Cn1cc(CCO)nn1)N1CCNCC1 | 4.7 |
| O=C(CCl)N1CCN(S(=O)(=O)c2ccc3c(c2)CCC3)CC1 | -22.6 |
| COc1ccc(CCN(Cc2cc3cccc(C)c3[nH]c2=O)C(=O)N2CCCC2)cc1OC | -9.15 |
| CCN(C(N)=S)c1ccccc1 | 0.679 |
| CN(C(=O)COC(=O)COc1ccc2ccccc2c1)c1c(N)n(Cc2ccccc2)c(=O)[nH]c1=O | 7.19 |
| COc1ccc(C)cc1S(=O)(=O)N1CCOCC1 | 21.2 |
| Cn1c(=O)cc(OCCCC(=O)NCc2ccccn2)c2ccccc21 | 2.41 |
| CC(C)CCNC(=O)c1ccccc1SCC(=O)NC1CCCCCCC1 | -14.8 |
| Cc1ccc(C)c(N2CCN(S(=O)(=O)c3c(C)[nH]c(C)c3C(=O)N3CCCCC3)CC2)c1 | 6.63 |
| CSCCC(NS(=O)(=O)c1ccc2c(c1)oc(=O)n2C)C(=O)NC1CCC(C)CC1 (centres unmarked) | 4.95 |
| CCOC(=O)COc1c(C=O)cc(Br)cc1OC | -23.3 |
| C/C(=N/NC(=O)CSc1ccccn1)c1ccc([N+](=O)[O-])cc1 | -64.2 |
| C=CCOc1ccc(C2/C(=C(\O)c3ccc4c(c3)CC(C)O4)C(=O)C(=O)N2CCN2CCOCC2)cc1OCC (centres unmarked) | 19.6 |
| CCC(=O)c1c(NC(C)C)cc(C)oc1=O | 21.2 |
| CCCCN(C(=O)c1ccc(Cl)c([N+](=O)[O-])c1)c1c(N)n(CCC)c(=O)[nH]c1=O | 12.6 |
| CCOc1ccc(NC(=O)CNC(=O)c2ccc([N+](=O)[O-])cc2)cc1 | -7.46 |
